Assay results as given in paper PMC6794377.
Results are given in words; binding and its absence hold for the method and conditions named. Binding seen in cells or lysates may run through a third protein. Some binding calls cover weakened binding; strength is not graded here. For some assays here: Tags and fused reporters may be left off the sequences shown.

T1: native p43 (AIMP1), endogenous in human cells (human (endogenous in HEK293T and HeLa)) (UniProt Q12904)
T1 sequence: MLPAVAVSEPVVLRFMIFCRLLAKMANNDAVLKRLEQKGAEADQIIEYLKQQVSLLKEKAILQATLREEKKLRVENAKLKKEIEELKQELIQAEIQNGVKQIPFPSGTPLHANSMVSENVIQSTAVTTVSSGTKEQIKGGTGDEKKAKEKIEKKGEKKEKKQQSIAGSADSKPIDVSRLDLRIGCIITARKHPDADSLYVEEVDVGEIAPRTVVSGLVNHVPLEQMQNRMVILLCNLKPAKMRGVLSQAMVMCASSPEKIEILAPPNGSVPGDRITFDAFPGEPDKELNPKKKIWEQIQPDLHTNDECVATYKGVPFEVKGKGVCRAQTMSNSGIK

T2: native hThrRS-L, endogenous in HEK293T (human (endogenous in HEK293T)) (UniProt A2RTX5)
T2 sequence: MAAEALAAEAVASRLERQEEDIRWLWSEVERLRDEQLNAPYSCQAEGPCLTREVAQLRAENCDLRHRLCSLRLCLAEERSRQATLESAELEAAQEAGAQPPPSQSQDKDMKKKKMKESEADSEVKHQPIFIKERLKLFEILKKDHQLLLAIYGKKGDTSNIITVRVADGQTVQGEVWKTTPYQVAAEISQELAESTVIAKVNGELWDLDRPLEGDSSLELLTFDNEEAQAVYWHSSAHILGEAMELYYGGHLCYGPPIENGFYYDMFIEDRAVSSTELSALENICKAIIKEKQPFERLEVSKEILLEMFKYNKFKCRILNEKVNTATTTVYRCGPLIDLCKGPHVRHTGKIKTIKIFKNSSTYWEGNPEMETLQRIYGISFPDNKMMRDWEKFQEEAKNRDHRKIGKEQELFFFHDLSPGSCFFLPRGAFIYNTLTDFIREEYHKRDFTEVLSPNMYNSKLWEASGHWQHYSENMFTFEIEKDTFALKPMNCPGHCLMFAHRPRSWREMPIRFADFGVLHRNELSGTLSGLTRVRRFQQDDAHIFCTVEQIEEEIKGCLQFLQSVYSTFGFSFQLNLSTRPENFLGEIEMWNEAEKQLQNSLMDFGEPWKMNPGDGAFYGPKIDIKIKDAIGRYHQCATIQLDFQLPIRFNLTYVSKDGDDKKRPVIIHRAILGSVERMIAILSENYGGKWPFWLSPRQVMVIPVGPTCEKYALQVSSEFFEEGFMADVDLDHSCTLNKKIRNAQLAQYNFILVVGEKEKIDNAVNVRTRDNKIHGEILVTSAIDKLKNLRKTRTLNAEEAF

T3: hThrRS-L-T163D with a C-terminal FLAG tag (human) (UniProt A2RTX5)
T3 sequence: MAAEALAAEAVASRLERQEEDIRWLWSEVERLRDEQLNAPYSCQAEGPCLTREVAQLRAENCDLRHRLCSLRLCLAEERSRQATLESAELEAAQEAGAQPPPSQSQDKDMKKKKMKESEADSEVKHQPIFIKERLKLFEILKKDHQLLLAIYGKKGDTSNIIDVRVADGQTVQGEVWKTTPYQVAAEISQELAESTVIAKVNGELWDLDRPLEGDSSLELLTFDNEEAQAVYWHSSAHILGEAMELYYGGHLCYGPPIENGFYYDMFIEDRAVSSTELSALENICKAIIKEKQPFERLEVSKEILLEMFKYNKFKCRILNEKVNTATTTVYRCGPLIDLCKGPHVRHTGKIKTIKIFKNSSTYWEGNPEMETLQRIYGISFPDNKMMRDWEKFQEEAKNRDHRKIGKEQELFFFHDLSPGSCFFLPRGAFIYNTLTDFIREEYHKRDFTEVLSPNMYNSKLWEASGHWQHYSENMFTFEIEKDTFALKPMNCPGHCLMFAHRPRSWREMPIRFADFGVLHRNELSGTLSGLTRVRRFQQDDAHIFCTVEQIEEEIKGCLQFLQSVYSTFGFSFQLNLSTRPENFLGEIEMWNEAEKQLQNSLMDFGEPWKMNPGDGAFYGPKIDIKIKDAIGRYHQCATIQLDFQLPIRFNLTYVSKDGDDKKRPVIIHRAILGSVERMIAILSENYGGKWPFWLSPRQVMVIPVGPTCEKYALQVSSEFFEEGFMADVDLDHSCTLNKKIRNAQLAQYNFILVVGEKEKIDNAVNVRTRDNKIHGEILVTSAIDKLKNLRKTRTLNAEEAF

T4: hThrRS-L-Y619D with a C-terminal FLAG tag (human) (UniProt A2RTX5)
T4 sequence: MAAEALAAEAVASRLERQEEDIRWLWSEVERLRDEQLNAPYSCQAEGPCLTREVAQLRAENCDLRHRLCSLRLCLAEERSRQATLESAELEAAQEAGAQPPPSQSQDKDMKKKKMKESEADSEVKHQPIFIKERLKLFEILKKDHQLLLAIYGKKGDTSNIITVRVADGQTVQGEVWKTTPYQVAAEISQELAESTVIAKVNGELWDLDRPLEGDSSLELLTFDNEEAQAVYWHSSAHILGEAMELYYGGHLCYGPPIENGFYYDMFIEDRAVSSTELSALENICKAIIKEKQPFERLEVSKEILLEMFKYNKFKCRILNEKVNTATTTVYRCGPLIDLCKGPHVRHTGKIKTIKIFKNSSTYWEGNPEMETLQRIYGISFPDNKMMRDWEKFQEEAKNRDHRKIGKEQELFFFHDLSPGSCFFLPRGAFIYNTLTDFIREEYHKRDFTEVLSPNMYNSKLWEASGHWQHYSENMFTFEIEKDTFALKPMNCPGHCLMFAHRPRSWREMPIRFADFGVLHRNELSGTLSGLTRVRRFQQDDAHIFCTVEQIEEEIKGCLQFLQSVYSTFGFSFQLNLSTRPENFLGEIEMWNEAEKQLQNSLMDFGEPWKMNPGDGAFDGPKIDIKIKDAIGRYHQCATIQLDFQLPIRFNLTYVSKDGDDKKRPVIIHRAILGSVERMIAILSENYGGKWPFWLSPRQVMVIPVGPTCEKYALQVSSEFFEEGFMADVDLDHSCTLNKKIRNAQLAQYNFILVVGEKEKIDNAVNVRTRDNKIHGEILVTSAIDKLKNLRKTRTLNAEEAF


Legend:
[1] = target: T1, native p43 (AIMP1), endogenous in human cells (human (endogenous in HEK293T and HeLa)); experiment: co-IP; transfected HEK293T lysate, IP with anti-p43 antibodies; western blotting
[2] = target: T2, native hThrRS-L, endogenous in HEK293T (human (endogenous in HEK293T)); experiment: co-IP; native HEK293T cell lysate, IP with anti-hThrRS-L antibodies; western blotting
[3] = target: T3, hThrRS-L-T163D with a C-terminal FLAG tag (human); experiment: co-IP; FLAG-tagged hThrRS-L or mutant expressed in HeLa cells; IP with anti-FLAG; endogenous partners detected by western blotting
[4] = target: T4, hThrRS-L-Y619D with a C-terminal FLAG tag (human); experiment: as above

binding [1] | binding [2] | binding [3] | binding [4] | Binder
no binding | – | – | – | native hThrRS, endogenous in HEK293T (enzyme, UniProt P26639 1-723) MFEEKASSPSGKMGGEEKPIGAGEEKQKEGGKKKNKEGSGDGGRAELNPWPEYIYTRLEMYNILKAEHDSILAEKAEKDSKPIKVTLPDGKQVDAESWKTTPYQIACGISQGLADNTVIAKVNNVVWDLDRPLEEDCTLELLKFEDEEAQAVYWHSSAHIMGEAMERVYGGCLCYGPPIENGFYYDMYLEEGGVSSNDFSSLEALCKKIIKEKQAFERLEVKKETLLAMFKYNKFKCRILNEKVNTPTTTVYRCGPLIDLCRGPHVRHTGKIKALKIHKNSSTYWEGKADMETLQRIYGISFPDPKMLKEWEKFQEEAKNRDHRKIGRDQELYFFHELSPGSCFFLPKGAYIYNALIEFIRSEYRKRGFQEVVTPNIFNSRLWMTSGHWQHYSENMFSFEVEKELFALKPMNCPGHCLMFDHRPRSWRELPLRLADFGVLHRNELSGALTGLTRVRRFQQDDAHIFCAMEQIEDEIKGCLDFLRTVYSVFGFSFKLNLSTRPEKFLGDIEVWDQAEKQLENSLNEFGEKWELNSGDGAFYGPKIDIQIKDAIGRYHQCATIQLDFQLPIRFNLTYVSHDGDDKKRPVIVHRAILGSVERMIAILTENYGGKWPFWLSPRQVMVVPVGPTCDEYAQKVRQQFHDAKFMADIDLDPGCTLNKKIRNAQLAQYNFILVVGEKEKISGTVNIRTRDNKVHGERTISETIERLQQLKEFRSKQAEEEF
binds | binds | binds | binds | ArgRS, endogenous in human cells (enzyme, UniProt P54136 1-660) MDVLVSECSARLLQQEEEIKSLTAEIDRLKNCGCLGASPNLEQLQEENLKLKYRLNILRKSLQAERNKPTKNMINIISRLQEVFGHAIKAAYPDLENPPLLVTPSQQAKFGDYQCNSAMGISQMLKTKEQKVNPREIAENITKHLPDNECIEKVEIAGPGFINVHLRKDFVSEQLTSLLVNGVQLPALGENKKVIVDFSSPNIAKEMHVGHLRSTIIGESISRLFEFAGYDVLRLNHVGDWGTQFGMLIAHLQDKFPDYLTVSPPIGDLQVFYKESKKRFDTEEEFKKRAYQCVVLLQGKNPDITKAWKLICDVSRQELNKIYDALDVSLIERGESFYQDRMNDIVKEFEDRGFVQVDDGRKIVFVPGCSIPLTIVKSDGGYTYDTSDLAAIKQRLFEEKADMIIYVVDNGQSVHFQTIFAAAQMIGWYDPKVTRVFHAGFGVVLGEDKKKFKTRSGETVRLMDLLGEGLKRSMDKLKEKERDKVLTAEELNAAQTSVAYGCIKYADLSHNRLNDYIFSFDKMLDDRGNTAAYLLYAFTRIRSIARLANIDEEMLQKAARETKILLDHEKEWKLGRCILRFPEILQKILDDLFLHTLCDYIYELATAFTEFYDSCYCVEKDRQTGKILKVNMWRMLLCEAVAAVMAKGFDILGIKPVQRM
– | binds | binds | binds | native p43 (AIMP1), endogenous in human cells (protein, UniProt Q12904-2 1-336) MLPAVAVSEPVVLRFMIFCRLLAKMANNDAVLKRLEQKGAEADQIIEYLKQQVSLLKEKAILQATLREEKKLRVENAKLKKEIEELKQELIQAEIQNGVKQIPFPSGTPLHANSMVSENVIQSTAVTTVSSGTKEQIKGGTGDEKKAKEKIEKKGEKKEKKQQSIAGSADSKPIDVSRLDLRIGCIITARKHPDADSLYVEEVDVGEIAPRTVVSGLVNHVPLEQMQNRMVILLCNLKPAKMRGVLSQAMVMCASSPEKIEILAPPNGSVPGDRITFDAFPGEPDKELNPKKKIWEQIQPDLHTNDECVATYKGVPFEVKGKGVCRAQTMSNSGIK
